Among all 310,000 compounds or so, about 14,000 (4.5%) showed an effect of 50% or more. Effects have a minus sign here. This is one part of the list.
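Note: peak tail current of the secondary pulse compared with the same well before compound.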

The experiment deals with human ether-à-go-go-related gene (hERG) potassium channel (human, UniProt Q12809). As to the kind of experiment: primary screen, population patch clamp on CHO cells stably expressing hERG.
Sequence of human ether-à-go-go-related gene (hERG) potassium channel (Q12809 whole entry, looked up): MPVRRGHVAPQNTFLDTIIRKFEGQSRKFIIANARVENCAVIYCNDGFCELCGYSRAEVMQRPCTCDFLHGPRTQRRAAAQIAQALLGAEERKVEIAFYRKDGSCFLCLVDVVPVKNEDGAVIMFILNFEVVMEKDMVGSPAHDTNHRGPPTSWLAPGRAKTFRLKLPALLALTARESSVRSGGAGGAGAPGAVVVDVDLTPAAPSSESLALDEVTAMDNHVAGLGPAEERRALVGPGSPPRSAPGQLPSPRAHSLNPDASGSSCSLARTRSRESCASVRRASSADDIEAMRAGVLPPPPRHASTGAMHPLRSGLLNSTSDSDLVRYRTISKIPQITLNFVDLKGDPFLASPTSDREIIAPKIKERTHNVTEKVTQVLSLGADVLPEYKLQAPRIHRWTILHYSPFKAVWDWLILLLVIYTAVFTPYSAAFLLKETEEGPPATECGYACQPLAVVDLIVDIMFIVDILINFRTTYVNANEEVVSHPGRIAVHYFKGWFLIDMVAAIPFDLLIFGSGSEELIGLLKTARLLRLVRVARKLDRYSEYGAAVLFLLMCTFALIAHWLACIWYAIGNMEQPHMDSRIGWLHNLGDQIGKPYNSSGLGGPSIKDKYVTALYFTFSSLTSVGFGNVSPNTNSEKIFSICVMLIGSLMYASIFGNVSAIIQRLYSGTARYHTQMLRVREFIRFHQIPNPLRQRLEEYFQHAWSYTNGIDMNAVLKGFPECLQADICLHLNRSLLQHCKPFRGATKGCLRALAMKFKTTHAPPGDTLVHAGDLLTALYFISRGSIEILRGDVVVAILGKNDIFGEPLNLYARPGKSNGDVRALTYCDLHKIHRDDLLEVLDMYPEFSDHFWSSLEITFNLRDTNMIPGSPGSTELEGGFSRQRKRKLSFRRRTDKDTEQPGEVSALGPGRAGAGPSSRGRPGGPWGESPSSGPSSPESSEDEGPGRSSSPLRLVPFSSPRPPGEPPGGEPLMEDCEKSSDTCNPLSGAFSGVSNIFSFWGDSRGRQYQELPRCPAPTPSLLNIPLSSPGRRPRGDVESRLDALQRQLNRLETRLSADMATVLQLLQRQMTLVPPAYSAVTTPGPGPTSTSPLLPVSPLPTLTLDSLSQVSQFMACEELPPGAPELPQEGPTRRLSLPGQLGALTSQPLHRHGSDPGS
For the molecule `CC1CC(C)CN(CC(C)(C)NS(=O)(=O)c2ccccc2)C1` (stereo not shown), the “hERG current change (%, negative = inhibition) at 10uM” value was -13.7%.
The result for `CC1(c2ccc(OC(F)F)cc2)NC(=O)N(CC(=O)Nc2ccc3c(c2)OCO3)C1=O` (stereo not shown) reads -36.5%; that for `Cc1cccc(NC(=O)c2ccc(C(=O)Nc3cccc(C)c3)nc2)c1`, 23.2%.
Consider `S=C(NCCc1ccccn1)Nc1ccc(Cl)cc1Cl`, for which the “hERG current change (%, negative = inhibition) at 10uM” value is -30.4%.
`CC(=O)Nc1ccc(C(=O)OCC(=O)Nc2ccccc2Sc2ccccc2)cc1`: the “hERG current change (%, negative = inhibition) at 10uM” value is 7.12%.
The result for `Cc1ccc(SCC(=O)Nc2cccnc2)cc1` reads 14.2%; that for `CCN(CC)S(=O)(=O)c1ccc(NC(=S)Nc2ccc(F)cc2)cc1`, 1.59%.
The result for `CCN(CC)CCOC(=O)CCc1cccc2ccccc12.O=C(O)C(=O)O` reads -42.6%.
Turning to `O=C(Nc1cc(S(=O)(=O)N2CCCCC2)ccc1N1CCCCC1)C1CC1`, the “hERG current change (%, negative = inhibition) at 10uM” value was -29.3%.
Next, `Cl.NC(CC(=O)O)c1ccc(Br)cc1` (stereo not shown): 0.265%; `Cl.O=C(CN1CCCCC1)N1c2ccccc2Sc2ccc(C(F)(F)F)cc21`: -31.1%.
Take `Oc1ccccc1C1=Nc2ncnn2C(c2ccccc2)C1` (stereo not shown): the “hERG current change (%, negative = inhibition) at 10uM” value is -16.6%.
Regarding `CCOc1ccc(Nc2nc3c(c(=O)[nH]2)CCCC3)cc1`, the “hERG current change (%, negative = inhibition) at 10uM” value is -3.98%.
Next, `CCN(Cc1ccccc1)S(=O)(=O)c1cc(C(=O)NC(C)C2CC3CCC2C3)ccc1OC` (stereo not shown): 3.23%; `Cc1cc(NC(=O)C(Cl)c2ccccc2)no1` (stereo not shown): -0.0237%; `COc1ccc(C(=O)C2CCCN(Cc3ccon3)C2)c(OC)c1` (stereo not shown): -53.9%.
As to `CC(OC(=O)c1ccc(NS(=O)(=O)c2ccc3[nH]c(=O)[nH]c3c2)cc1)C(N)=O` (stereo not shown), the “hERG current change (%, negative = inhibition) at 10uM” value came out at 18.1%.
Regarding `CCOc1ccc(NC(=O)CN2CCN(CC(=O)Nc3ccc(OC)cc3OC)CC2)cc1`, the “hERG current change (%, negative = inhibition) at 10uM” value is listed as -74.2%.
The result for `O=C(CCS(=O)(=O)c1ccc(Br)cc1)N1CCN(c2ccc(Cl)cc2)CC1` reads -9.11%; that for `COc1cc(NS(=O)(=O)c2ccc(C)cc2)c2ncccc2c1`, -3.47%; that for `CC(CNC(=O)Cn1ccc(N)nc1=O)c1ccccc1` (stereo not shown), 6.63%.
The result for `c1ccc(Cn2nnc3ccccc32)cc1` reads 8.88%; that for `CC(C)O.CCc1ccc(-n2c(O)c(/C=N/N3CCCCC3c3cccnc3)c(=O)[nH]c2=O)cc1` (stereo not shown), 13%.
Regarding `COc1ccc(-c2cc(O)cc(O)c2)cc1`, the “hERG current change (%, negative = inhibition) at 10uM” value is recorded as -3.33%.
Take `CN(Cc1ccccc1)Cc1c(O)ccc2ccccc12`: the “hERG current change (%, negative = inhibition) at 10uM” value turned out to be 7.65%.
`Cc1cc2[nH]c(=O)c3ccccc3n2n1`: the “hERG current change (%, negative = inhibition) at 10uM” value is given as 3.95%.
The result for `Cc1nnc2ccc(N3CCC4(CC3)OCCO4)nn12` reads 2.06%.
As to `CCS(=O)(=O)NCC(c1cccnc1)N1CCN(c2ccc(OC)cc2)CC1` (stereo not shown), the “hERG current change (%, negative = inhibition) at 10uM” value is listed as -11.3%.
Next, `O=C(O)CCC(=O)N1CCN(c2nc(-c3ccccc3Cl)c3cc(Br)ccc3n2)CC1`: -1.78%.
`CN1CCCCc2c1nc1ccccc1c2N.O=C(O)c1cncc(Br)c1`: the “hERG current change (%, negative = inhibition) at 10uM” value was -82.5%.
Consider `COc1cc(C2C3C(=O)N(c4ccccc4)C(=O)C3ON2c2ccccc2)ccc1O` (stereo not shown), for which the “hERG current change (%, negative = inhibition) at 10uM” value is 17.3%.
Turning to `Cc1ccc(C(=O)NC(=S)NCC2CCCO2)cc1` (stereo not shown), the “hERG current change (%, negative = inhibition) at 10uM” value was 4.03%.
On to `CC(=O)c1cccc(NC(=O)C2CC(=O)N(Cc3ccccc3)C2)c1` (stereo not shown), for which the “hERG current change (%, negative = inhibition) at 10uM” value is recorded as 2.85%.
As to `O=C(COC(=O)c1nc(Cl)ccc1Cl)NCc1cccs1`, the “hERG current change (%, negative = inhibition) at 10uM” value worked out at 1.99%.
With `C=CCNC1=C(Cl)C(=O)c2ccccc2C1=O`, the “hERG current change (%, negative = inhibition) at 10uM” value is given as 4.26%.
As to `COc1ccc(C(c2nnnn2C2CCCC2)N2CCN(C3CCCC3)CC2)cc1OC.Cl` (stereo not shown), the “hERG current change (%, negative = inhibition) at 10uM” value is on record as -22.7%.
`COc1ccccc1OC(C)C(=O)Nc1ccc2c(c1)OCCO2` (stereo not shown): the “hERG current change (%, negative = inhibition) at 10uM” value was -0.873%.
Consider `O=C(OCC(=O)N1CCCC1=O)C1COc2ccccc2O1` (stereo not shown), for which the “hERG current change (%, negative = inhibition) at 10uM” value came out at 24.8%.
Next, `CCN1CCN(C(=O)C2=CC(c3ccc(OC)cc3)=NS(=O)(=O)N2C)CC1`: -2.99%.
On to `Cc1ccc(-n2nc3c([n+]2[O-])CCc2nonc2-3)cc1`, for which the “hERG current change (%, negative = inhibition) at 10uM” value is reported as 18.6%.
As for `CN(CC(=O)Nc1c(Cl)cccc1Cl)C(=O)c1ccc2nc[nH]c2c1`, the “hERG current change (%, negative = inhibition) at 10uM” value is recorded as 9.64%.
As for `Cn1cnnc1SCCC(=O)Nc1ccc(Cl)cc1`, the “hERG current change (%, negative = inhibition) at 10uM” value turned out to be 12%.
On to `Cc1ccc(-c2nc(-c3cccnc3)no2)c(C)c1`, for which the “hERG current change (%, negative = inhibition) at 10uM” value is given as 11.9%.
Consider `COC(=O)c1cc(OC)c(OC)c(OC)c1NC(=O)c1ccc(S(=O)(=O)N(C)C)cc1`, for which the “hERG current change (%, negative = inhibition) at 10uM” value is given as 1.07%.
Consider `CC(=O)c1ccc(Cl)c(Cl)c1Cl`, for which the “hERG current change (%, negative = inhibition) at 10uM” value was found to be 9.6%.
In the case of `CCc1nc(Cl)c(C#N)c2c1CCCC2`, the “hERG current change (%, negative = inhibition) at 10uM” value is -1.73%.
With `O=C(CSc1nc2ccccc2o1)N/N=C/c1ccc(O)c(O)c1`, the “hERG current change (%, negative = inhibition) at 10uM” value is -19.4%.
Next, `Cc1ccc(NC(=O)CSCc2ccco2)cc1`: 21.7%.
The result for `N#Cc1c(SCc2ccccc2)sc(C(=O)c2ccccc2)c1N` reads 2.97%; that for `O=S(=O)(Nc1ccc(Cc2ccncc2)cc1)N1CCCC1`, -15.6%; that for `Cc1cnc(NC(=O)c2ccc3c(c2)C(=O)N(Cc2cccnc2)C3=O)s1`, 10.6%.
`O=C(c1ccccc1)N(Cc1cccc(Br)c1)C1CCS(=O)(=O)C1` (stereo not shown): the “hERG current change (%, negative = inhibition) at 10uM” value is -7.59%.
As to `Fc1ccc(CNc2nc(-c3cccnc3)nc3ccccc23)cc1`, the “hERG current change (%, negative = inhibition) at 10uM” value was -50.4%.
For `Cc1ccccc1NC(=O)/C(C#N)=C/c1ccc(-c2ccc(Cl)c(C(=O)O)c2)o1`, the “hERG current change (%, negative = inhibition) at 10uM” value is 25.3%.
For `Cc1ccc(CCNC(=O)c2nc(CS(=O)(=O)c3ccc(Cl)cc3)no2)cc1`, the “hERG current change (%, negative = inhibition) at 10uM” value turned out to be 31.6%.
Consider `CCN1C(=O)[C@H]2[C@@H](c3ccc(C)cc3)N3C(=O)N(c4cccc(C)c4)C(=O)[C@@]3(Cc3ccccc3)[C@H]2C1=O`, for which the “hERG current change (%, negative = inhibition) at 10uM” value was 7.13%.
Next, `CCN(CC)CC(=O)N1c2ccccc2Sc2ccc(Cl)cc21.Cl`: -10.3%.
As for `Cc1cc(NC(=O)C2Oc3ccccc3OC2C)no1` (stereo not shown), the “hERG current change (%, negative = inhibition) at 10uM” value was 6.59%.

The values are drawn from publication PMC4336329 (PLoS ONE, 2015).
